# Measurements as given in PMC4336329 (PLoS ONE, 2015).
# About 14,000 (4.5%) of roughly 310,000 compounds showed an effect of 50% or more. Effects have a minus sign here. The list shows a part of the results.
# Target: human ether-à-go-go-related gene (hERG) potassium channel (human, UniProt Q12809)
# Assay: primary screen, population patch clamp on CHO cells stably expressing hERG
# 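Also: peak tail current of the secondary pulse compared with the same well before compound.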
# Chain of human ether-à-go-go-related gene (hERG) potassium channel (Q12809 whole entry, looked up): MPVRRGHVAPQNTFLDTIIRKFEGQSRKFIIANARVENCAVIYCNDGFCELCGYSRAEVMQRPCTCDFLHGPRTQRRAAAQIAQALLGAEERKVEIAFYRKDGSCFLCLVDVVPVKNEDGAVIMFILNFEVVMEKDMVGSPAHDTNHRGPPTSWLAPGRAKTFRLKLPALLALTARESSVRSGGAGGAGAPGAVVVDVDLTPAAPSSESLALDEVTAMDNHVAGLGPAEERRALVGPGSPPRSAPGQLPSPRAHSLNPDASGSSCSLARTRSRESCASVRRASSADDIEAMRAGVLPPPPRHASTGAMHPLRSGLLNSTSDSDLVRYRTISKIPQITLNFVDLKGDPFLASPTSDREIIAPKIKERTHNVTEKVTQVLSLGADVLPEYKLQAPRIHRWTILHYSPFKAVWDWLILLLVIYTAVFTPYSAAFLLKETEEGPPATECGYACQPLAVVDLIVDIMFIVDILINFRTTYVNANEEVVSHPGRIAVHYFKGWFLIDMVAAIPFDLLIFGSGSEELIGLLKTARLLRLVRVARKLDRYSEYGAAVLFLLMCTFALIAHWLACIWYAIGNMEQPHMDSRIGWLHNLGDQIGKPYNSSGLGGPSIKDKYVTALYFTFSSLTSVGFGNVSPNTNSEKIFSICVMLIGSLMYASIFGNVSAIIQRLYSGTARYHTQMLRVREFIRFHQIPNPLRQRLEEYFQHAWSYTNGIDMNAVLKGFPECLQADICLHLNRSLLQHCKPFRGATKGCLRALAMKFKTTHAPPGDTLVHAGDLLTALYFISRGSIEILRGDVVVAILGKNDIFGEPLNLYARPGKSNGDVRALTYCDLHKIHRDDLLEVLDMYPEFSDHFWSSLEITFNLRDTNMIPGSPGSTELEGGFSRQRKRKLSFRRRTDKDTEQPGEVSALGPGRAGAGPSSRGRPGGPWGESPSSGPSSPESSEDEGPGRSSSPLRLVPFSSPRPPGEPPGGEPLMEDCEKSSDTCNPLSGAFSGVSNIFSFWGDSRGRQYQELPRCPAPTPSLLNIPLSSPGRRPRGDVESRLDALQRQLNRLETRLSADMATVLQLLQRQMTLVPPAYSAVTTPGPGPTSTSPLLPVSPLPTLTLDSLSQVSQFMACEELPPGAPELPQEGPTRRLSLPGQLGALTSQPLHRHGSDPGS
row,Structure (SMILES),"hERG current change (%, negative = inhibition) at 10uM [%]"
1,COc1ccc(/C=N/n2cnnc2SCCO)cc1OC,2.24
2,CN(C)CCC(=O)c1ccc2c(c1)OCO2.Cl,10.7
3,O=C(CSc1nnc(CNC(=O)c2cccc(C(F)(F)F)c2)o1)NCc1ccco1,8.83
4,CN(CC(=O)Nc1cc(S(=O)(=O)N2CCCCCC2)ccc1Cl)Cc1ccc2c(c1)OCO2,-5.85
5,Cc1cc(C(F)(F)F)nc(SCC(=O)NC2CC3CCC2C3)n1 (stereo not drawn),-19.6
6,CC(Oc1ccc(Cl)cc1Cl)C(=O)NNC(=O)C(=O)N1CCCCC1 (stereo not drawn),0.728
7,COC1CC(OC2CCC3(C)C(CCC4C3CCC3(C)C(C5=CC(=O)OC5)C(OC(C)=O)CC43O)C2)OC(C)C1OC1OC(COC2OC(CO)C(O)C(O)C2O)C(O)C(O)C1O (stereo not drawn),11.6
8,O=C(NCC(c1ccco1)N1CCN(c2ccccc2F)CC1)C(=O)NC1CCCC1 (stereo not drawn),-2.4
9,COc1ccc(SCCc2nnc(-c3ccccc3)o2)cc1,6.5
10,COc1ccccc1/C=C/C(=O)NNC(=O)c1cccs1,2.91
11,COCCNC(=O)C1CC(=O)N(c2ccc(F)c(Cl)c2)C1 (stereo not drawn),-2.89
12,COc1ccc(C(=O)NC(=S)NNC(=O)c2cnccn2)cc1OC,12.2
13,CCOCCCN1CC(C(=O)NCCc2ccc(C)cc2)CC1=O (stereo not drawn),9.58
14,O=C(NCC(c1cccnc1)N1CCN(c2ccccc2F)CC1)Oc1ccccc1 (stereo not drawn),-5.55
15,O=C1CCCC(=O)N1c1ccc(N2CCOCC2)c([N+](=O)[O-])c1,17.5
16,CCn1c(C)c(C(C)=O)c(N2CCN(C(c3ccccc3)c3ccccc3)CC2)nc1=S,-2.41
17,CC(=O)NC12CC3CC(C1)CC(C(=O)NCc1ccc(C)cc1)(C3)C2,19.8
18,COc1ccc(CCNC(=O)CSCC(=O)Nc2ccccc2)cc1OC,17.8
19,Cn1c2ccccc2c(=O)c2ccc(-c3ccc4c(c3)OCO4)cc21,13.1
20,CCOC(=O)c1c(C)[nH]c(C)c1C(=O)COC(=O)/C=C/c1ccco1,-3.81
21,CC1=Nc2ccccc2NC(=O)C1Sc1nnc(C)s1 (stereo not drawn),-12.6
22,CCNS(=O)(=O)c1ccc(NC(=O)c2ccccc2)cc1,-14.7
23,COC(=O)CC1C(=O)NCCN1C(=S)Nc1ccc(F)cc1 (stereo not drawn),2.58

row,Structure (SMILES),"hERG current change (%, negative = inhibition) at 10uM [%]"
1,O=C(c1cccs1)C1C(c2ccc(Br)cc2)NC(=S)NC1(O)C(F)(F)F (stereo not drawn),-8.01
2,COc1ccc(-c2ocnc2C(=O)N2CCN(Cc3cccnc3)CC2)cc1,11
3,Cn1cccc1C(=O)OCc1ccc(F)cc1,9.61
4,CCOc1ccc(Cl)cc1CNCCNCCO.Cl,24.3
5,CCOc1ccc(Cl)cc1S(=O)(=O)N1CCN(c2ccc(C)c(C)c2)CC1,-0.908
6,COC(=O)CCCCC1SCC(NC(=O)c2ccccc2)C1=O (stereo not drawn),-2.45
7,CCCCOC(=O)c1ccc(NC(=S)NC(=O)c2c(Cl)cnn2C)cc1,1.84
8,CSCCC(NC(=O)c1ccc(Cl)cc1Cl)C(=O)NNC(=O)c1ccncc1 (stereo not drawn),-6.73
9,O=C(Cc1cccc2ccccc12)NNC(=O)c1cccs1,15.7
10,COc1ccccc1N1CCN(Cc2ccc(-c3ccccc3[N+](=O)[O-])o2)CC1,-9.04
11,Cc1csc(NC(=O)C2CCCN(S(=O)(=O)c3cccnc3)C2)n1 (stereo not drawn),-11.6
12,N#C/C(=C\Nc1ccc(F)c(Cl)c1)C(=O)C1CC1,9.37
13,Cc1nc2c(C(=O)N3CCOCC3)cnn2c(C)c1Cc1cccc(Cl)c1,-20
14,Cc1cc(C(=O)OCC(=O)N2C(C)CCCC2C)c(C)o1 (stereo not drawn),9.09
15,O=C1CCN(CCc2ccccc2)CCN1[C@H](CSc1ccc(Br)cc1)Cc1ccccc1,-74.6
16,Cc1nc2cncc(Br)c2n1C,3.58
17,COc1cc(C(=O)NC(C)C2CC3CCC2C3)ccc1OC(F)F (stereo not drawn),-17.6
18,O=C(Nc1ccc(Cl)cc1C(=O)c1ccccc1Cl)c1ccco1,12.7
19,Cc1ccccc1C1CC(c2cccs2)=NN1S(C)(=O)=O (stereo not drawn),24.7
20,Nn1c(SCc2c(F)cccc2F)nnc1-c1ccccn1,2.69
21,O=C(Nc1ccccc1C(=O)O)c1ccc(N2C(=O)C3CC=CCC3C2=O)cc1 (stereo not drawn),21.3
22,COC(=O)[C@H]1C[C@@H]1[C@H](N)c1ccccc1.Cl,5.51
23,CCOC(=O)C1C(=O)CC(C)(O)C(C(=O)OCC)C1c1ccc(Br)cc1 (stereo not drawn),-13.9

row,Structure (SMILES),"hERG current change (%, negative = inhibition) at 10uM [%]"
1,COCCCNC(=O)c1cccc2c(=O)c(C)c(-c3ccccc3)oc12,-11.3
2,O=C(NCCN1CCN(C(=O)c2cccc(Br)c2)CC1)C(=O)NCc1ccccc1,-70
3,O=C(CN1CCN(Cc2ccccc2Cl)C1=O)NCc1ccco1,0.608
4,Cc1cc(C)cc(NC(=O)Cn2ncn3c(cc4ccccc43)c2=O)c1,-4.52
5,Cc1ccc(CN(C)C(=O)CCc2c[nH]c3ccccc23)o1,-10.8
6,COCc1cc(N2CCOCC2)nc(-c2ccccc2)n1,17.4
7,CCNC(=S)N1CCCC(C(N)=O)C1 (stereo not drawn),10.5
8,CC(C)[C@H](NC(=O)c1c(F)cccc1F)C(=O)N1CCN(c2ccc(F)cc2)CC1,-54.2
9,COc1ccc(S(=O)(=O)NCCc2cc3ccc(C)c(C)c3[nH]c2=O)cc1,17.2
10,Cc1ccc(-c2nnn(CC(=O)N(Cc3ccccc3)C(C(=O)NC(C)(C)C)c3ccncc3)n2)o1 (stereo not drawn),-13.7
11,CCOc1ncccc1C(=O)N1CCN(S(=O)(=O)c2ccc(Br)cc2Cl)CC1,9.97
12,O=C(CN1CCN(c2ccccn2)CC1)Nc1ccc(F)cc1.O=C(O)C(=O)O,-47.2
13,CN1/C(=C\C(=O)Nc2cccnc2)c2ccccc2CC1(C)C,1.82
14,Cc1cccc(C(=O)NNS(=O)(=O)c2ccccc2)c1O,9.14
15,COc1cccc(C2(O)CC(C(F)(F)F)=NN2C(=O)c2ccccn2)c1 (stereo not drawn),-8.38
16,N[C@@H](Cc1ccccc1)C(=O)N1C[C@H]2C[C@@H](C1)c1cccc(=O)n1C2,12.1
17,CC(C)(C)C(=O)NC(=C(Cl)Cl)P(=O)(O)O,13.6
18,CCOC(=O)c1cc(-c2ccccc2)n(CC(=O)NC(C)(C)C)c1C,-20.9
19,CCC1Oc2ccc(C)cc2N(CC(=O)N(Cc2ccc3c(c2)OCO3)CC2CCCO2)C1=O (stereo not drawn),-26.7
20,COc1ccc(S(=O)(=O)N2CCOC2CNC(=O)C(=O)NCc2cccnc2)cc1OC (stereo not drawn),-3
21,CC(=O)c1ccc(N2CCN(C(=O)CCCn3c(=O)[nH]c4ccc(Br)cc4c3=O)CC2)cc1,-34.8
22,CC(C)C1(C)C(=O)N=C2c3ccccc3C(=O)N21 (stereo not drawn),12.3
23,COc1ccc(NC(=O)CNC(=O)c2ccco2)cc1,6.88

row,Structure (SMILES),"hERG current change (%, negative = inhibition) at 10uM [%]"
1,CC1CCCCC1NC(=O)Cn1nnc(-c2ccc(Cl)cc2)n1 (stereo not drawn),4.54
2,O=C(NCC(c1ccco1)N1CCOCC1)c1ccccc1 (stereo not drawn),25.1
3,CCNc1nc(NCC)nc(N(n2cnnc2)S(=O)(=O)c2ccc(C)cc2)n1,-25.2
4,O=C1C2ON(c3ccccc3)C(c3ccccn3)C2C(=O)N1c1ccc(Br)cc1 (stereo not drawn),2.88
5,CCN(C(=O)c1cc2c(=O)n3ccccc3nc2n1CCCOC)C1CCCCC1,-2.32
6,Cc1ccc(C)c(NC(=O)Cn2nnc(C(=O)NCc3ccco3)c2N)c1,0.00318
7,Cc1ccc(Sc2nc(C)c([N+](=O)[O-])c(C)c2C#N)cc1,3.41
8,Cc1nc(COc2cccc(Cl)c2)sc1C(=O)/C=C/N(C)C,-3.3
9,COc1ccc(/C=N/NC(=O)c2nn(C)cc2Br)cc1CSCc1ccco1,-50.6
10,CCc1cc(=O)[nH]c(SCC(=O)N2CCCC2)n1,-2.26
11,O=C(C1CC1)N1CCc2cc(Br)cc(S(=O)(=O)NCCCN3CCCCC3)c21,-13.3
12,CC1CC(Nc2cccc(O)c2)=CC(=O)O1 (stereo not drawn),6.19
13,COc1cc(O)c(C(CCN2CCCC2)c2cc(OC)c(OC)c(OC)c2)c(OC)c1 (stereo not drawn),-7.35
14,CN(CC(=O)Nc1ccccc1C(F)(F)F)C(=O)C1=COCCO1,-3
15,Cc1ccc(-n2c(C)nnc2SCC(=O)NNC(=O)c2ccco2)cc1,25.4
16,CSc1ccccc1NC(=O)c1cccs1,-4.87
17,NC(=O)C1CCN(C(=O)CSCc2ccccc2Cl)CC1,4.53
18,COCCn1c(N)c(C(=O)NS(=O)(=O)c2ccc(C)cc2)c(=O)[nH]c1=O,5.3
19,CCNC(=S)NCCN1CCOCC1,10.4
20,COc1ccc(CN2CC(C(=O)NCCC3=CCCCC3)CC2=O)cc1 (stereo not drawn),7.77
21,CC(C)(C#N)C(C)(C)c1nn[nH]n1,5.9
